The values that follow come from PMC10668032.

Some of the results follow. At the low end of the ranking the order means little.

This experiment concerns the target SIX1-Q177R homeodomain (UniProt Q15475). Kind of experiment: universal protein binding microarray. Particulars: Universal all-10-mer PBM (8x60K, AMADID 030236), 300 nM GST-tagged protein, Alexa Fluor 488 anti-GST; buffer, salt, pH and temperature not stated; high values mean tight binding; most listed sequences are background and not binding sites; double strand, one strand shown.
On to AGGATTTA, for which the binding signal was -0.0376 E-score.

As to AATACAGG, the binding signal is -0.221 E-score. Regarding AGGTCGAA, the binding signal is -0.0118 E-score.

On to CTAGGCTA, for which the binding signal was -0.157 E-score. ATAAGGTG: the binding signal was 0.217 E-score. AATTTTCG: the binding signal was -0.309 E-score. As for GGAAACGA, the figure is -0.178 E-score; as for CGTGCGCA, -0.101 E-score. With AGTTCGAA the figure was 0.156 E-score; with CACGTCTA, 0.137 E-score; with GCCTTGGA, -0.0916 E-score. As to AATGGATA, the binding signal was 0.0833 E-score. Turning to CGAGTTCA, the binding signal is -0.0101 E-score. On to GCGACCTA, for which the binding signal is -0.0335 E-score.

Take GGTATGCA: the binding signal came to 0.144 E-score. As for ATCGAGTG, the figure is 0.172 E-score; as for CTCTCTCC, -0.0479 E-score. As for ATCTGCGC, the binding signal was 0.0383 E-score.

CCCAGGAA: the binding signal was -0.00647 E-score. For AAGGTATG, the binding signal is -0.014 E-score. As for AGCAGCCC, the figure is -0.00822 E-score; as for CGGCTGCA, -0.0593 E-score; as for CGACTAAC, 0.192 E-score. As for ACGATAAC, the binding signal worked out at 0.00713 E-score. Regarding ATAGATTG, the binding signal is -0.12 E-score. As for AGGCAATC, the binding signal stood at 0.0116 E-score. Regarding AGATCACG, the binding signal was -0.104 E-score. Take GCGCGATA: the binding signal is -0.0906 E-score. Turning to AGACTGCA, the binding signal was -0.151 E-score. As for ACCCCGCA, the figure is 0.259 E-score; as for CAGGTCAG, -0.149 E-score. For TACATTCA, the binding signal is -0.301 E-score.

Consider CAGTTAGC, for which the binding signal was -0.216 E-score. For AAGCTAGT, the binding signal was -0.162 E-score. With GCGCTTTA the figure was -0.295 E-score. As to GGAGCGGA, the binding signal is -0.124 E-score. On to TGGTTTAA, for which the binding signal was 0.0547 E-score.

Turning to CAACTCAG, the binding signal is -0.0605 E-score.

On to AGCCGCAC, for which the binding signal was -0.17 E-score. Regarding ATTGACCC, the binding signal amounted to 0.167 E-score. On to CCTCGTAA, for which the binding signal worked out at 0.0299 E-score.

For the sequence TATTATAA, the binding signal is -0.0644 E-score. With ACTAGAGA the figure was -0.0743 E-score. With ATTGCATG the figure was -0.0533 E-score; with CAACATTA, -0.105 E-score; with ATGCGATG, -0.118 E-score. As to CGGCAGTA, the binding signal was -0.151 E-score. With CAGGTTCC the figure was -0.0489 E-score. Take CCGAGCTA: the binding signal is 0.0115 E-score. With GCGAGAAC the figure was -0.0828 E-score; with CGAAGTCC, -0.17 E-score; with AAGGATGG, 0.0751 E-score. With GAGGATCC the figure was 0.139 E-score; with ACAGGTCC, -0.0608 E-score. ATCTTCCA: the binding signal came out at 0.0232 E-score.

Take CTACCTAC: the binding signal stood at 0.0425 E-score. With GAACGTAA the figure was -0.0777 E-score; with ACTGGAAC, 0.0784 E-score; with ACTAACAG, -0.019 E-score. With CCACAGAA, the binding signal was determined as 0.135 E-score. As for CCTCAGCC, the binding signal was -0.265 E-score. In the case of GCCCAACC, the binding signal is -0.051 E-score. Turning to GAAACTCC, the binding signal is -0.0671 E-score. Take GGGTATGA: the binding signal was 0.186 E-score. AGATAGCC: the binding signal was -0.104 E-score.

Take ACTAGAGG: the binding signal came out at 0.044 E-score. On to ACGAACTA, for which the binding signal was -0.0737 E-score.

As to ACGCCCGT, the binding signal worked out at 0.111 E-score.

Turning to AACACAGA, the binding signal was found to be 0.15 E-score. As for CAATACTC, the figure is 0.0402 E-score.

On to CTCGGGGC, for which the binding signal is -0.0523 E-score. As for GGTACTAC, the figure is 0.0689 E-score; as for AATGGAAG, -0.127 E-score.

As to CTGAATCA, the binding signal was -0.118 E-score.

On to GAGTGGTA, for which the binding signal was -0.0278 E-score. As for ACTGTTAC, the figure is 0.086 E-score. Turning to GCCGGAGC, the binding signal was -0.0715 E-score. Regarding AAGGAAGC, the binding signal was -0.262 E-score. Turning to GACGAGAA, the binding signal is -0.282 E-score. For ATGGTCTA, the binding signal was -0.0851 E-score. Turning to CTTTATAA, the binding signal was -0.1 E-score. As for GAGAGGAA, the figure is 0.0986 E-score. Take CAGGATGA: the binding signal was -0.0525 E-score. Regarding TATGAATA, the binding signal is 0.00244 E-score. With CAACATTG the figure was -0.0338 E-score. On to CCAGCTGA, for which the binding signal is -0.0521 E-score. Take GCCCCCGA: the binding signal was -0.0372 E-score.

With AGAAGTCA, the binding signal is -0.135 E-score. In the case of GGCCCCGA, the binding signal is -0.0711 E-score. As to ACTTAACG, the binding signal was -0.11 E-score. As for CGATAAAC, the figure is -0.112 E-score; as for GCAACCAA, -0.0222 E-score; as for AAACTTCG, -0.246 E-score. As to CCTCGGCA, the binding signal is 0.0366 E-score. With GGTACTCA the figure was 0.0462 E-score; with CACAAATG, -0.173 E-score. Turning to CCATACGG, the binding signal is -0.0765 E-score. As for GAATCGTC, the binding signal is -0.0814 E-score. Turning to AGGCGCGA, the binding signal was -0.176 E-score. In the case of ATTGGACG, the binding signal is -0.304 E-score.

On to TCACCCAA, for which the binding signal is 0.0387 E-score.

As to AGACTAAT, the binding signal is -0.126 E-score. For GGATTAGA, the binding signal is -0.0263 E-score.

For GTCACTGA, the binding signal came out at 0.0983 E-score. With AAGATCGC, the binding signal is -0.0229 E-score. As for ATAGCGAC, the figure is 0.211 E-score. With CCGGTGCG the figure was 0.179 E-score; with GGTTTCGA, 0.0098 E-score; with AAGGTGAA, 0.0656 E-score.

With AGTAGGGG, the binding signal came to 0.196 E-score.

Turning to CTTCCCAA, the binding signal was -0.176 E-score. With GGACGTAA, the binding signal was -0.0723 E-score. For the sequence GTGCGGGA, the binding signal was determined as 0.146 E-score. As for TAGTTAAA, the figure is -0.042 E-score.

With CTCCCTTA, the binding signal was -0.0609 E-score. On to CCGCATAG, for which the binding signal was determined as 0.147 E-score.

Turning to AGTATTAA, the binding signal is -0.00688 E-score. As to CTGTCATC, the binding signal is -0.096 E-score. With AACTCCGG, the binding signal was determined as 0.161 E-score. Consider ACCGGTTA, for which the binding signal amounted to 0.0294 E-score. Turning to ACTCTTAA, the binding signal was -0.062 E-score. Consider AGTTAAGC, for which the binding signal was -0.0327 E-score. With AGTCGCCG the figure was 0.00185 E-score; with CTGGGAGA, -0.164 E-score; with AGAGTTCC, -0.0111 E-score. TCTCTAAA: the binding signal is -0.0301 E-score. On to CCTGTGTC, for which the binding signal stood at 0.229 E-score.

Regarding CGCCGCTC, the binding signal is -0.0667 E-score. With TCACCAAA the figure was -0.107 E-score; with ACAAAAAA, 0.00886 E-score. As for GCAGTACA, the binding signal amounted to 0.11 E-score.

For GGCCAACC, the binding signal was -0.104 E-score. With CGCTCGGA, the binding signal is 0.033 E-score.

Take CATAGAAC: the binding signal was 0.00632 E-score. With AACTGCAG, the binding signal was -0.12 E-score.

For ACCCCTTG, the binding signal was 0.237 E-score. Take GGGTTTTA: the binding signal is 0.163 E-score. On to CTGCAAAG, for which the binding signal was -0.252 E-score. Consider ATACGAGA, for which the binding signal is -0.152 E-score. With GTACGCAA the figure was -0.037 E-score; with ATCCCATC, 0.0454 E-score; with ATCGATCC, 0.0612 E-score. With GAGAGCAA the figure was -0.245 E-score; with CCTTATGC, -0.143 E-score; with CGCGCCTA, -0.144 E-score. Take ACGATCGG: the binding signal is -0.00809 E-score. As for CGTTCTAA, the figure is -0.0713 E-score; as for AGACATGG, -0.132 E-score; as for CATAGCCC, -0.207 E-score. Take CACGCCAG: the binding signal came out at 0.178 E-score. For CATGCCTC, the binding signal was -0.243 E-score. For ATTTCGTA, the binding signal is -0.131 E-score. CGAGGAGC: the binding signal was -0.0561 E-score. On to AAATACTT, for which the binding signal was -0.223 E-score. For the sequence ACACCCGT, the binding signal is 0.471 E-score. As to CGGTTCTC, the binding signal is -0.101 E-score.

Take AATGAGGT: the binding signal was -0.173 E-score.

On to TAGCCCAA, for which the binding signal is -0.173 E-score. As for AGATTGAT, the figure is -0.0886 E-score. For ATGAATGC, the binding signal is -0.131 E-score.

For the sequence TCTTGGCA, the binding signal is -0.0612 E-score. AGTCCACC: the binding signal amounted to 0.0784 E-score. For the sequence AACCGGTA, the binding signal is -0.145 E-score. In the case of TAACACGA, the binding signal worked out at 0.399 E-score. Regarding GCAAATTA, the binding signal was determined as 0.0462 E-score.

With GATCACAA, the binding signal is -0.0799 E-score. Turning to CATTTCTA, the binding signal was -0.24 E-score.

On to CATAGAAA, for which the binding signal is -0.134 E-score. With CTCAGAAG the figure was -0.0727 E-score. As to AGCCTTGC, the binding signal was -0.24 E-score. With AGGGATAG the figure was -0.00179 E-score. For CCGATTCC, the binding signal is -0.168 E-score.
